# The list shows a part of the results. Antibody binding of pooled human sera (four to six donors per pool; dilution not stated) to peptides of the Trypanosoma cruzi antigen TSSA on microarrays. Quantile-normalised fluorescence in arbitrary units, mean of duplicate arrays; higher = more binding. No active / inactive call. The uninfected pools are read here as the healthy donors of the same country. The strongest signals lie near the top of the scale (about 60,000).
# Experiments:
# Assay in all cases: antibody binding signal (normalised fluorescence) (arbitrary fluorescence units); higher = stronger serum antibody binding to peptide
# [1] = test system: pooled sera of chronic Chagas disease patients, Bolivia
# Description: (§1)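 Microarray of 15-residue peptides over residues 30-55 of Trypanosoma cruzi TSSAII, each with 1 to 10 substitutions at naturally variable positions, probed with one serum pool per country.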
# [2] = test system: pooled sera of chronic Chagas disease patients, Brazil
# Description: as §1
# [3] = test system: pooled sera of chronic Chagas disease patients, Colombia
# Description: as §1
# [4] = test system: pooled sera of chronic Chagas disease patients, Mexico
# Description: as §1
# [5] = test system: pooled sera of chronic Chagas disease patients, USA
# Description: as §1
# [6] = test system: pooled sera of uninfected people, Argentina
# Description: as §1
# [7] = test system: pooled sera of uninfected people, Bolivia
# Description: as §1
# [8] = test system: pooled sera of uninfected people, Brazil
# Description: as §1
# [9] = test system: pooled sera of uninfected people, Colombia
# Description: as §1
# [10] = test system: pooled sera of uninfected people, Mexico
# Description: as §1
# [11] = test system: pooled sera of uninfected people, USA
# Description: as §1
Sequence,antibody binding signal [1],antibody binding signal [2],antibody binding signal [3],antibody binding signal [4],antibody binding signal [5],antibody binding signal [6],antibody binding signal [7],antibody binding signal [8],antibody binding signal [9],antibody binding signal [10],antibody binding signal [11]
GTDNKPATGGTPSPS,852,42200,1650,672,522,190,938,612,619,452,160
GKEKKPAAGGAPSQS,474,1210,5810,5310,4230,116,109,131,104,79.5,294
SGKENKTATGETPSP,3830,12600,1690,1560,14900,6170,2610,184,482,682,770
KEKKTATGETPSPSG,221,259,232,234,4350,275,115,101,102,119,840
KPATGGTPSPSGASS,249,398,263,3040,249,207,579,199,308,190,294
KDNKTAAGETPSQSG,297,1080,2010,246,487,480,258,244,267,160,169
TDKKAAAGEAPSPSG,336,4030,351,306,10200,142,109,192,88.7,124,123
KPATGETPSQSGASS,29400,32600,156,305,22300,359,660,324,176,1830,209
GTDKKPAAGGTPSQS,255,913,7290,485,1110,327,260,2010,185,261,215
GKDNKTATGETPSPP,1170,4160,5070,4280,8100,244,324,154,374,144,699
KPAAGGAPSQPGASS,248,5830,1070,294,236,228,131,149,103,111,136
SGKEKKAATGETPSP,445,5500,1450,3900,11700,463,202,97.3,286,105,454
SGKENKPAAGGAPSQ,469,19700,4520,4950,18400,7070,1900,116,189,295,190

# — the supplement of paper PMC10441789
